Experimental data published in paper PMC4274898.
No constants are given. Whether binding was seen depends on the method and setting. Some binding calls cover weakened binding; strength is not graded here.

T1: ARF5 (Arabidopsis thaliana) (UniProt P93024)
T1 sequence: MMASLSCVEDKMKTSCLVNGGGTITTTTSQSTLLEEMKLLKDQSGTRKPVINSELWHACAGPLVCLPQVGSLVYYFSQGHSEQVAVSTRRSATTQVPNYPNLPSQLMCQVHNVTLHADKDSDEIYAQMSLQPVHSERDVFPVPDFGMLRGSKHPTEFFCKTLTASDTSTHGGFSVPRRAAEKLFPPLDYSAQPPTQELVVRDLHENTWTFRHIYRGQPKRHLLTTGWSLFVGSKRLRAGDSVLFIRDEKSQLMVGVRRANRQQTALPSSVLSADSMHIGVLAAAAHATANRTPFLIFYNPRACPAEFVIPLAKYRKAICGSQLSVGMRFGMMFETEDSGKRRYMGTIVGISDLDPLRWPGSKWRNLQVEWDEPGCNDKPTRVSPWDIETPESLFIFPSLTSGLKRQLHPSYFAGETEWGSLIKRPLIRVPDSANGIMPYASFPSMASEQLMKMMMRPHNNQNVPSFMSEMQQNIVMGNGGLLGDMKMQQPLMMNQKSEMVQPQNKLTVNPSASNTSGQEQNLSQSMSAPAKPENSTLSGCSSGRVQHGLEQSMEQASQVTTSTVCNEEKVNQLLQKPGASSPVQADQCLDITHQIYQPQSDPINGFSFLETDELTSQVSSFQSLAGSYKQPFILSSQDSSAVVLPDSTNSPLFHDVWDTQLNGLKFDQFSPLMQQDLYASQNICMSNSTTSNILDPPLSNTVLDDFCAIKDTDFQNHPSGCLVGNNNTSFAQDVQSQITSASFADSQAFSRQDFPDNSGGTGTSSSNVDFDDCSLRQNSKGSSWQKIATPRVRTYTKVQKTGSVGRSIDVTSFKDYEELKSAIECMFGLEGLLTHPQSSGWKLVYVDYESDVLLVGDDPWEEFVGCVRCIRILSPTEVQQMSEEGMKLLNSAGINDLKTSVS

T2: ARF11 (Arabidopsis thaliana) (UniProt Q9ZPY6)
T2 sequence: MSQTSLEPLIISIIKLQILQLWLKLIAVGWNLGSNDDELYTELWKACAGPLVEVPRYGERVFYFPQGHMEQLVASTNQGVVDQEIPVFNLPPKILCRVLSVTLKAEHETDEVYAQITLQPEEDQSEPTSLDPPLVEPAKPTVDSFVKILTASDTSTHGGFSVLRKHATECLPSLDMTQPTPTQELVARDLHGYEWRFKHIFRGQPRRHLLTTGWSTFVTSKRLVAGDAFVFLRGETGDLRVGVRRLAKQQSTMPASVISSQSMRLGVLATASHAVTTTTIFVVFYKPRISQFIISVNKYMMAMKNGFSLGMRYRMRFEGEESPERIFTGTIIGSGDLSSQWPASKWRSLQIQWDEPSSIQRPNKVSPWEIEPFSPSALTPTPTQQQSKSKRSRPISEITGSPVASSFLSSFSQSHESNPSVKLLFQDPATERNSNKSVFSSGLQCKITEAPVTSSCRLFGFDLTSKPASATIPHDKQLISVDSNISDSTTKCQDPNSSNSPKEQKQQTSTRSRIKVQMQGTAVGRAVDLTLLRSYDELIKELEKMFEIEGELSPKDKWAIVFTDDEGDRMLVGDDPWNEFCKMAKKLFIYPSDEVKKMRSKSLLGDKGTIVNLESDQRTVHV

T3: ARF19 (Arabidopsis thaliana) (UniProt Q8RYC8)
T3 sequence: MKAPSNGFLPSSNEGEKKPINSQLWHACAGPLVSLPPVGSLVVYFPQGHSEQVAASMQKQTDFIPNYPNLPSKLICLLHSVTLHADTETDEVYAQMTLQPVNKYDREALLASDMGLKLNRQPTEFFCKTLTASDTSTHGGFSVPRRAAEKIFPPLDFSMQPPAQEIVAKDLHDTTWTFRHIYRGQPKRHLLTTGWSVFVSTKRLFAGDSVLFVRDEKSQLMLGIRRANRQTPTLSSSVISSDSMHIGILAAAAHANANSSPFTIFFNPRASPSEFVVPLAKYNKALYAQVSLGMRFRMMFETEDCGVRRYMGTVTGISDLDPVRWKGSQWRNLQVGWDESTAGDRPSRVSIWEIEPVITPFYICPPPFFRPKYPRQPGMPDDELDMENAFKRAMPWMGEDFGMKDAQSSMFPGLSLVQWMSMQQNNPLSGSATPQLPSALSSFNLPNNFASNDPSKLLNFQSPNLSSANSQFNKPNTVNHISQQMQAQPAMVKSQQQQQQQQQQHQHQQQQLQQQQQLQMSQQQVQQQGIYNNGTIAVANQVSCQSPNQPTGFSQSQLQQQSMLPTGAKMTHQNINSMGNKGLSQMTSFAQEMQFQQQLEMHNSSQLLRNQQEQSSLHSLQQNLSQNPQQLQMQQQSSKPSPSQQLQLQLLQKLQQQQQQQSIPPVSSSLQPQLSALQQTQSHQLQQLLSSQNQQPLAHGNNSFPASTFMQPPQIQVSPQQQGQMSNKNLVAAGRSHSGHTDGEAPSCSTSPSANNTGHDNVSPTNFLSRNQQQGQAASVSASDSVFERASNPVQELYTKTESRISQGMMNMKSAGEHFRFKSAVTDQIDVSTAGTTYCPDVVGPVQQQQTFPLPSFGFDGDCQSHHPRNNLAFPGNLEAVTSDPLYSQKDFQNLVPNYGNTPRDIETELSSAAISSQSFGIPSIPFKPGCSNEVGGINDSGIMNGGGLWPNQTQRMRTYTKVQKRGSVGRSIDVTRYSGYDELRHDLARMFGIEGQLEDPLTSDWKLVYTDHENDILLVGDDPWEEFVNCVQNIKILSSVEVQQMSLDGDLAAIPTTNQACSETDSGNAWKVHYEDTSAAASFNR


What was measured:
Experiment in all cases: two-hybrid; S. cerevisiae AH109 co-transformed with pGBKT7-ARF (bait) and pGADT7-Aux/IAA (prey); growth on SD/-Ade-His-Leu-Trp against SD/-Leu/-Trp; at least 10 independent colonies; serial dilutions for strength
[1] = biological target: T1, ARF5 (Arabidopsis thaliana)
[2] = biological target: T2, ARF11 (Arabidopsis thaliana)
[3] = biological target: T3, ARF19 (Arabidopsis thaliana)

binding [1]	binding [2]	binding [3]	Binder
binds	no binding	binds	Aux/IAA20 (protein, UniProt O24410 1-175) MGRGRSSSSSSIESSSKSNPFGASSSTRNLSTDLRLGLSFGTSSGTQYFNGGYGYSVAAPAVEDAEYVAAVEEEEENECNSVGSFYVKVNMEGVPIGRKIDLMSLNGYRDLIRTLDFMFNASILWAEEEDMCNEKSHVLTYADKEGDWMMVGDVPWEMFLSTVRRLKISRANYHY
binds	no binding	binds	Aux/IAA16 (protein, UniProt O24407 1-236) MINFEATELRLGLPGGNHGGEMAGKNNGKRGFSETVDLKLNLSSTAMDSVSKVDLENMKEKVVKPPAKAQVVGWPPVRSFRKNVMSGQKPTTGDATEGNDKTSGSSGATSSASACATVAYVKVSMDGAPYLRKIDLKLYKTYQDLSNALSKMFSSFTIGNYGPQGMKDFMNESKLIDLLNGSDYVPTYEDKDGDWMLVGDVPWEMFVDSCKRIRIMKGSEAIGLAPRALEKCKNRS
binds	no binding	binds	Aux/IAA12 (protein, UniProt Q38830 1-239) MRGVSELEVGKSNLPAESELELGLGLSLGGGAWKERGRILTAKDFPSVGSKRSAESSSHQGASPPRSSQVVGWPPIGLHRMNSLVNNQAMKAARAEEGDGEKKVVKNDELKDVSMKVNPKVQGLGFVKVNMDGVGIGRKVDMRAHSSYENLAQTLEEMFFGMTGTTCREKVKPLRLLDGSSDFVLTYEDKEGDWMLVGDVPWRMFINSVKRLRIMGTSEASGLAPRRQEQKDRQRNNPV
binds	no binding	binds	Aux/IAA19 (protein, UniProt O24409 1-197) MEKEGLGLEITELRLGLPGRDVAEKMMKKRAFTEMNMTSSGSNSDQCESGVVSSGGDAEKVNDSPAAKSQVVGWPPVCSYRKKNSCKEASTTKVGLGYVKVSMDGVPYLRKMDLGSSQGYDDLAFALDKLFGFRGIGVALKDGDNCEYVTIYEDKDGDWMLAGDVPWGMFLESCKRLRIMKRSDATGFGLQPRGVDE
binds	no binding	binds	Aux/IAA27 (protein, UniProt Q9ZSY8 1-305) MSVSVAAEHDYIGLSEFPTMEATTMSDKTKTRDNNNGLNFKATELRLGLPGSESPERVDSRFLALNKSSCPVSGAKRVFSDAINDSNKWVFSPGSTTATGDVGSGSGPRTSVVKDGKSTTFTKPAVPVKEKKSSATAPASKAQVVGWPPIRSFRKNSMASSQSQKPGNNSETEEAEAKSGPEQPCLYVKVSMEGAPYLRKIDLKTYKSYLELSSALEKMFSCFTIGQFGSHGGCGRDGLNESRLTDLLRGSEYVVTYEDKDSDWMLVGDVPWEMFICSCKKLRIMKSSEAIGLAPRVMEKCRSRN
binds	no binding	binds	Aux/IAA18 (protein, UniProt O24408 1-267) MEGYSRNGEISPKLLDLMIPQERRNWFHDEKNSVFKTEEKKLELKLGPPGEEDDDESMIRHMKKEPKDKSILSLAGKYFSPSSTKTTSHKRTAPGPVVGWPPVRSFRKNLASGSSSKLGNDSTTSNGVTLKNQKCDAAAKTTEPKRQGGMFVKINMYGVPIGRKVDLSAHNSYEQLSFTVDKLFRGLLAAQRDFPSSIEDEKPITGLLDGNGEYTLTYEDNEGDKMLVGDVPWQMFVSSVKRLRVIKTSEISSALTYGNGKQEKMRR
binds	no binding	binds	Aux/IAA26 (protein, UniProt Q8LAL2 1-269) MEGCPRNREIGPKLLDLIPQGRKWYQEDKNNTDQEKKLELRLGPPGGDEEDHSAIKKKNTEIRNIKKETEDKSFHCFNGNHFSPSNKTTSVPHISQKRTAPGPVVGWPPVRSFRKNLASTSSSKLGNESSHGGQINKSDDGEKQVETKKEGMFVKINMDGVPIGRKVDLNAYNSYEQLSFVVDKLFRGLLAAQRDISDGQGEEKPIIGLLDGKGEFTLTYEDNEGDKMLVGDVPWQMFVSSVKRLRVIKSSEISSALTFGCSKQEKMMH
binds	no binding	binds	Aux/IAA15 (protein, UniProt Q9C966 1-179) MSPEEYVRVWPDSGDLGGTELTLALPGTPTNASEGPKKFGNKRRFLETVDLKLGEAHENNYISSMVTNDQLVGWPPVATARKTVRRKYVKVALDGAAYLRKVDLGMYDCYGQLFTALENMFQGIITICRVTELERKGEFVATYEDKDGDLMLVGDVPWMMFVESCKRMRLMKTGDAIGL
binds	no binding	binds	Aux/IAA13 (protein, UniProt Q38831 1-247) MITELEMGKGESELELGLGLSLGGGTAAKIGKSGGGGAWGERGRLLTAKDFPSVGSKRAADSASHAGSSPPRSSSQVVGWPPIGSHRMNSLVNNQATKSAREEEEAGKKKVKDDEPKDVTKKVNGKVQVGFIKVNMDGVAIGRKVDLNAHSSYENLAQTLEDMFFRTNPGTVGLTSQFTKPLRLLDGSSEFVLTYEDKEGDWMLVGDVPWRMFINSVKRLRVMKTSEANGLAARNQEPNERQRKQPV
binds	no binding	binds	Aux/IAA28 (protein, UniProt Q9XFM0 1-175) MEEEKRLELRLAPPCHQFTSNNNINGSKQKSSTKETSFLSNNRVEVAPVVGWPPVRSSRRNLTAQLKEEMKKKESDEEKELYVKINMEGVPIGRKVNLSAYNNYQQLSHAVDQLFSKKDSWDLNRQYTLVYEDTEGDKVLVGDVPWEMFVSTVKRLHVLKTSHAFSLSPRKHGKE
binds	no binding	binds	Aux/IAA2 (protein, UniProt P49678 1-174) MAYEKVNELNLKDTELCLGLPGRTEKIKEEQEVSCVKSNNKRLFEETRDEEESTPPTKTQIVGWPPVRSSRKNNNSVSYVKVSMDGAPYLRKIDLKTYKNYPELLKALENMFKVMIGEYCEREGYKGSGFVPTYEDKDGDWMLVGDVPWDMFSSSCKRLRIMKGSDAPALDSSL
